Measured values taken from the supplement of paper PMC12423691.
The list shows a part of the results. Binding of human transcription factors and regulators to the viral nucleoprotein by AlphaScreen, crude cell-free proteins, amounts not normalised, one pass. Fold of the Venus control; higher = more signal. No active / inactive call. Single-pass screen; sequences are the whole Swiss-Prot entries looked up by name.

B1: ZNF280B, Q86YH2 (protein)
chain: MEQSCEEEKEPEPQKNIQETKQVDDEDAELIFVGVEHVNEDAELIFVGVTSNSKPVVSNILNRVTPGSWSRRKKYDHLRKDTARKLQPKSHETVTSEAVTVLPASQLESRSTDSPIIIEPLSKPDYRNSSPQVVPNNSSELPSPLITFTDSLHHPVSTALSVGGINESPRVSKQLSTFEVNSINPKRAKLRDGIIEGNSSASFPSDTFHTMNTQQSTPSNNVHTSLSHVQNGAPFPAAFPKDNIHFKPINTNLDRANELAKTDILSLTSQNKTFDPKKENPIVLLSDFYYGQHKGEGQPEQKTHTTFKCLSCVKVLKNVKFMNHVKHHLEFEKQRNDSWENHTTCQHCHRQFPTPFQLQCHIENVHTAQEPSTVCKICELSFETDQVLLQHMKDHHKPGEMPYVCQVCHYRSSVFADVETHFRTCHENTKNLLCPFCLKIFKTATPYMCHYRGHWGKSAHQCSKCRLQFLTFKEKMEHKTQCHQMFKKPKQLEGLPPETKVTIQVSLEPLQPGSVDVASITVSTSDSEPSLPRSKSKISKKSH
B2: OVOL1, O14753 (protein)
chain: MPRAFLVKKPCVSTCKRNWSELPDEERGEIYVPVSLGFCPPQPYREPEPSVAEPPSCPLALNMSLRDSSYSMAPGPCVVAQLPSEDMGHLTDPQSRDHGFLRTKMKVTLGDSPSGDLFTCRVCQKAFTYQRMLNRHMKCHNDVKRHLCTYCGKGFNDTFDLKRHVRTHTGVRPYKCSLCDKAFTQRCSLESHLKKIHGVQQKYAYKERRAKLYVCEECGCTSESQEGHVLHLKEHHPDSPLLRKTSKKVAVALQNTVTSLLQGSPHL
B3: SUFU, Q9UMX1 (protein)
chain: MAELRPSGAPGPTAPPAPGPTAPPAFASLFPPGLHAIYGECRRLYPDQPNPLQVTAIVKYWLGGPDPLDYVSMYRNVGSPSANIPEHWHYISFGLSDLYGDNRVHEFTGTDGPSGFGFELTFRLKRETGESAPPTWPAELMQGLARYVFQSENTFCSGDHVSWHSPLDNSESRIQHMLLTEDPQMQPVQTPFGVVTFLQIVGVCTEELHSAQQWNGQGILELLRTVPIAGGPWLITDMRRGETIFEIDPHLQERVDKGIETDGSNLSGVSAKCAWDDLSRPPEDDEDSRSICIGTQPRRLSGKDTEQIRETLRRGLEINSKPVLPPINPQRQNGLAHDRAPSRKDSLESDSSTAIIPHELIRTRQLESVHLKFNQESGALIPLCLRGRLLHGRHFTYKSITGDMAITFVSTGVEGAFATEEHPYAAHGPWLQILLTEEFVEKMLEDLEDLTSPEEFKLPKEYSWPEKKLKVSILPDVVFDSPLH
B4: TWIST2, Q8WVJ9 (protein)
chain: MEEGSSSPVSPVDSLGTSEEELERQPKRFGRKRRYSKKSSEDGSPTPGKRGKKGSPSAQSFEELQSQRILANVRERQRTQSLNEAFAALRKIIPTLPSDKLSKIQTLKLAARYIDFLYQVLQSDEMDNKMTSCSYVAHERLSYAFSVWRMEGAWSMSASH
B5: MLX, Q9UH92 (protein)
chain: MTEPGASPEDPWVKASPVGAHAGEGRAGRARARRGAGRRGASLLSPKSPTLSVPRGCREDSSHPACAKVEYAYSDNSLDPGLFVESTRKGSVVSRANSIGSTSASSVPNTDDEDSDYHQEAYKESYKDRRRRAHTQAEQKRRDAIKRGYDDLQTIVPTCQQQDFSIGSQKLSKAIVLQKTIDYIQFLHKEKKKQEEEVSTLRKDVTALKIMKVNYEQIVKAHQDNPHEGEDQVSDQVKFNVFQGIMDSLFQSFNASISVASFQELSACVFSWIEEHCKPQTLREIVIGVLHQLKNQLY
B6: SPHK1, Q9NYA1 (protein)
chain: MDPAGGPRGVLPRPCRVLVLLNPRGGKGKALQLFRSHVQPLLAEAEISFTLMLTERRNHARELVRSEELGRWDALVVMSGDGLMHEVVNGLMERPDWETAIQKPLCSLPAGSGNALAASLNHYAGYEQVTNEDLLTNCTLLLCRRLLSPMNLLSLHTASGLRLFSVLSLAWGFIADVDLESEKYRRLGEMRFTLGTFLRLAALRTYRGRLAYLPVGRVGSKTPASPVVVQQGPVDAHLVPLEEPVPSHWTVVPDEDFVLVLALLHSHLGSEMFAAPMGRCAAGVMHLFYVRAGVSRAMLLRLFLAMEKGRHMEYECPYLVYVPVVAFRLEPKDGKGVFAVDGELMVSEAVQGQVHPNYFWMVSGCVEPPPSWKPQQMPPPEEPL
B7: ZNF146, Q15072 (protein)
chain: MSHLSQQRIYSGENPFACKVCGKVFSHKSNLTEHEHFHTREKPFECNECGKAFSQKQYVIKHQNTHTGEKLFECNECGKSFSQKENLLTHQKIHTGEKPFECKDCGKAFIQKSNLIRHQRTHTGEKPFVCKECGKTFSGKSNLTEHEKIHIGEKPFKCSECGTAFGQKKYLIKHQNIHTGEKPYECNECGKAFSQRTSLIVHVRIHSGDKPYECNVCGKAFSQSSSLTVHVRSHTGEKPYGCNECGKAFSQFSTLALHLRIHTGKKPYQCSECGKAFSQKSHHIRHQKIHTH
B8: HNF1A, P20823 (protein)
chain: MVSKLSQLQTELLAALLESGLSKEALIQALGEPGPYLLAGEGPLDKGESCGGGRGELAELPNGLGETRGSEDETDDDGEDFTPPILKELENLSPEEAAHQKAVVETLLQEDPWRVAKMVKSYLQQHNIPQREVVDTTGLNQSHLSQHLNKGTPMKTQKRAALYTWYVRKQREVAQQFTHAGQGGLIEEPTGDELPTKKGRRNRFKWGPASQQILFQAYERQKNPSKEERETLVEECNRAECIQRGVSPSQAQGLGSNLVTEVRVYNWFANRRKEEAFRHKLAMDTYSGPPPGPGPGPALPAHSSPGLPPPALSPSKVHGVRYGQPATSETAEVPSSSGGPLVTVSTPLHQVSPTGLEPSHSLLSTEAKLVSAAGGPLPPVSTLTALHSLEQTSPGLNQQPQNLIMASLPGVMTIGPGEPASLGPTFTNTGASTLVIGLASTQAQSVPVINSMGSSLTTLQPVQFSQPLHPSYQQPLMPPVQSHVTQSPFMATMAQLQSPHALYSHKPEVAQYTHTGLLPQTMLITDTTNLSALASLTPTKQVFTSDTEASSESGLHTPASQATTLHVPSQDPASIQHLQPAHRLSASPTVSSSSLVLYQSSDSSNGQSHLLPSNHSVIETFISTQMASSSQ
B9: SALL2, Q9Y467 (protein)
chain: MSRRKQRKPQQLISDCEGPSASENGDASEEDHPQVCAKCCAQFTDPTEFLAHQNACSTDPPVMVIIGGQENPNNSSASSEPRPEGHNNPQVMDTEHSNPPDSGSSVPTDPTWGPERRGEESSGHFLVAATGTAAGGGGGLILASPKLGATPLPPESTPAPPPPPPPPPPPGVGSGHLNIPLILEELRVLQQRQIHQMQMTEQICRQVLLLGSLGQTVGAPASPSELPGTGTASSTKPLLPLFSPIKPVQTSKTLASSSSSSSSSSGAETPKQAFFHLYHPLGSQHPFSAGGVGRSHKPTPAPSPALPGSTDQLIASPHLAFPSTTGLLAAQCLGAARGLEATASPGLLKPKNGSGELSYGEVMGPLEKPGGRHKCRFCAKVFGSDSALQIHLRSHTGERPYKCNVCGNRFTTRGNLKVHFHRHREKYPHVQMNPHPVPEHLDYVITSSGLPYGMSVPPEKAEEEAATPGGGVERKPLVASTTALSATESLTLLSTSAGTATAPGLPAFNKFVLMKAVEPKNKADENTPPGSEGSAISGVAESSTATRMQLSKLVTSLPSWALLTNHFKSTGSFPFPYVLEPLGASPSETSKLQQLVEKIDRQGAVAVTSAASGAPTTSAPAPSSSASSGPNQCVICLRVLSCPRALRLHYGQHGGERPFKCKVCGRAFSTRGNLRAHFVGHKASPAARAQNSCPICQKKFTNAVTLQQHVRMHLGGQIPNGGTALPEGGGAAQENGSEQSTVSGARSFPQQQSQQPSPEEELSEEEEEEDEEEEEDVTDEDSLAGRGSESGGEKAISVRGDSEEASGAEEEVGTVAAAATAGKEMDSNEKTTQQSSLPPPPPPDSLDQPQPMEQGSSGVLGGKEEGGKPERSSSPASALTPEGEATSVTLVEELSLQEAMRKEPGESSSRKACEVCGQAFPSQAALEEHQKTHPKEGPLFTCVFCRQGFLERATLKKHMLLAHHQVQPFAPHGPQNIAALSLVPGCSPSITSTGLSPFPRKDDPTIP
B10: ZNF528, Q3MIS6 (protein)
chain: MALTQGPLKFMDVAIEFSQEEWKCLDPAQRTLYRDVMLENYRNLVSLGICLPDLSVTSMLEQKRDPWTLQSEEKIANDPDGRECIKGVNTERSSKLGSNAGNKPCKNQLGFTFQLHLSDLQLFQAERKISGCKHFEKPVSDNSSVSPLEKISSSVKSHLLNKYRNNFDHAPLLPQEQKAHIREKAYKCNEHGQVFRASASLTNQVIHNADNPYKCSECGKVFSCSSKLVIHRRMHTGEKPYKCHECGKLFSSNSNLSQHQRIHTGEKPYKCHECDKVFRSSSKLAQHQRIHTGEKPYKCHECDKVFNQIAHLVRHQKIHTGEKPYSCNKCGKVFSRHSYLAEHQTVHTGEKPYKCEECGKAFSVRSSLITHQLIHTGRKPYKCKECDKVFGRKCFLTSHQRIHTRERPYGCSQCGKIFSQKSDLIRHRKTHTDEKPYKCNKCGTAFREFSDLTAHFLIHSGEKPYECKECGKVFRYKSSLTSHHRIHTGEKPYKCNRCGKVFSRSSNLVCHQKIHTGEKPYKCNQCGKVFNQASYLTRHQIIHTGERPYRCSKCGKAFRGCSGLTAHLAIHTEKKSHECKECGKIFTQKSSLTNHHRIHIGEKPYKCTLCSKVFSHNSDLAQHQRVHS

target: nucleoprotein N of Crimean-Congo hemorrhagic fever virus; test: AlphaScreen luminescence signal relative to Venus negative control (fold); higher = stronger binding to CCHFV N
Method: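 AlphaScreen binding of cell-free made, FLAG-GST-tagged human transcription factors and regulators (crude translation products) to biotinylated N protein; signal as fold of the FLAG-GST-Venus control. One pass.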

Row | Binder | AlphaScreen luminescence signal
1 | B1 | 2.37
2 | B2 | 2
3 | B3 | 2.23
4 | B4 | 1.91
5 | B5 | 1.44
6 | B6 | 2.79
7 | B7 | 1.72
8 | B8 | 3.02
9 | B9 | 1.12
10 | B10 | 3.02
